Measurements reported in article PMC4336329 (PLoS ONE, 2015).
About 14,000 (4.5%) of roughly 310,000 compounds showed an effect of 50% or more. Effects have a minus sign here. This is one part of the list.

biological target: human ether-à-go-go-related gene (hERG) potassium channel (human, UniProt Q12809); test: primary screen, population patch clamp on CHO cells stably expressing hERG
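Also: peak tail current of the secondary pulse compared with the same well before compound.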

Chain of human ether-à-go-go-related gene (hERG) potassium channel (Q12809 whole entry, looked up): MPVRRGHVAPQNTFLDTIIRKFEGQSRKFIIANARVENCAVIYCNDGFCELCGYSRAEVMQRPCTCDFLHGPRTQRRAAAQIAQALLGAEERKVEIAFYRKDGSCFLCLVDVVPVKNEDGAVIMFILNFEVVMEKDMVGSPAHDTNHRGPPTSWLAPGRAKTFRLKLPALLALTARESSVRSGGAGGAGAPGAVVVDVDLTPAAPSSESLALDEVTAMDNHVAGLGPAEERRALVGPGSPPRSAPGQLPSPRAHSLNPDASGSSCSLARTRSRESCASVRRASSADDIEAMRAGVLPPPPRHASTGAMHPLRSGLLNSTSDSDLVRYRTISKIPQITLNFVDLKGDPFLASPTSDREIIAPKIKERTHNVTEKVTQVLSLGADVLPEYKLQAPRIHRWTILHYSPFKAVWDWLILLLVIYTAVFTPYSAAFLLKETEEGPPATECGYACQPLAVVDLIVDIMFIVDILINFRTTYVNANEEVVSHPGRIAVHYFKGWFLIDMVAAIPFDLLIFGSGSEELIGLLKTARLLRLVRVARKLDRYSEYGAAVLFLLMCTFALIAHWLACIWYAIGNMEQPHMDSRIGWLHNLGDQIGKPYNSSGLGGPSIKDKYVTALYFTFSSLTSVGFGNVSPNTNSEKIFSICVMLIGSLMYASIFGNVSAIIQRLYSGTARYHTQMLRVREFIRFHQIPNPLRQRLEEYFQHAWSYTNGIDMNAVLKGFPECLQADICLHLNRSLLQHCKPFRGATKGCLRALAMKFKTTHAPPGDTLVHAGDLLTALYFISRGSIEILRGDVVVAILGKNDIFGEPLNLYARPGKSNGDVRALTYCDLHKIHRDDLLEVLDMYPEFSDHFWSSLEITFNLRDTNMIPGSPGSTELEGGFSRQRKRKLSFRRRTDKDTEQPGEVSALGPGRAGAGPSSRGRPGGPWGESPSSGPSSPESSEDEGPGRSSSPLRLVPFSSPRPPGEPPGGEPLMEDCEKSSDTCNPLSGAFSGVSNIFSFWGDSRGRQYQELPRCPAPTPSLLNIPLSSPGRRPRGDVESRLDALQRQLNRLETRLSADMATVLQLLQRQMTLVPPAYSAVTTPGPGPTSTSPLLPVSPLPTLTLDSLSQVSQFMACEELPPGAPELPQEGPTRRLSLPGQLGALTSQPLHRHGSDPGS

First: Nn1c(Cc2cccc3ccccc23)nnc1SCC(=O)NCC1CCCO1 (centres unmarked)
Second: CC(C)Nc1oc(Cc2cccc3ccccc23)nc1C#N
The “hERG current change (%, negative = inhibition) at 10uM” value of the first is higher: -12.9% for the first, -24.3% for the second.

First: CCOC(=O)NN=C1CCC(c2ccccc2)CC1 (centres unmarked)
Second: O=C(NCCc1ccccc1)C1CCC(=O)N1C1CCCC1 (centres unmarked)
The “hERG current change (%, negative = inhibition) at 10uM” value of the first is lower: 10.9% for the first, 13.8% for the second.

Compared with `COc1ccc(/C=C/C(=O)NCCOc2ccc(C)cc2)cc1`, `COc1ccc(OCC(=O)Nc2ccc3c(c2)OCO3)cc1` is lower in “hERG current change (%, negative = inhibition) at 10uM” value: 6.3% for the first, -0.489% for the second.

Compared with `CCOc1cccc(C(=O)NC(=S)Nc2cccnc2)c1`, `COc1cccc(NC(=O)Nc2nnc(CC(=O)NCc3ccccc3)s2)c1` is higher in “hERG current change (%, negative = inhibition) at 10uM” value: -14.5% for the first, -10.4% for the second.

Compared with `NS(=O)(=O)c1cccc(NC(=O)c2cccnc2Oc2ccccc2)c1`, `Cc1ccc(-c2ccc(C(=O)Nc3ccccc3)o2)c2ccccc12` is lower in “hERG current change (%, negative = inhibition) at 10uM” value: 12.7% for the first, 10.5% for the second.

First: CC(C)(C)c1ccc(C2SCC(=O)N2c2cccc(C(=O)O)c2)cc1 (centres unmarked)
Second: Cc1ccc(N2C(=O)CS/C2=N\C(=S)Nc2ccccc2)cc1
The “hERG current change (%, negative = inhibition) at 10uM” value of the first is higher: 16.8% for the first, 16% for the second.

Going from `O=c1[nH]c(-c2ccc(Cl)cc2)cs1` to `CC(=O)Nc1c(-c2ccc(Cl)cc2)c(=O)c2ccccc2n1C`, the “hERG current change (%, negative = inhibition) at 10uM” value falls from 9.25% to 3.49%.

Going from `CN(C(=O)CSc1nnc(COc2ccccc2F)n1N)C1CCS(=O)(=O)C1` (centres unmarked) to `Cc1ccc2nc(SCC(=O)Nc3ccccc3F)nc(=O)n2c1`, the “hERG current change (%, negative = inhibition) at 10uM” value falls from 15.2% to -19%.

Compared with `CCc1nc(OCc2ccco2)c2sc3nc4c(cc3c2n1)COC(C)(C)C4`, `Cc1nnc(CN(C)C(=O)c2cc(COc3ccc(C)c(C)c3)on2)o1` is higher in “hERG current change (%, negative = inhibition) at 10uM” value: -13.6% for the first, 6.24% for the second.

Going from `CS(=O)(=O)c1ccc(C(=O)NNC(=O)c2ccccc2-n2cccc2)cc1` to `Cc1ccc(C(=O)NNC(=O)c2ccc(C)cc2)cc1`, the “hERG current change (%, negative = inhibition) at 10uM” value falls from 10.1% to 3.96%.

First: CCOC(=O)C1CCCN(C(=O)c2ccc(S(=O)(=O)N3CCCC3)cc2)C1 (centres unmarked)
Second: CCOC(=O)C1CCCN(C(=O)C(C)(C)Oc2ccc(Cl)cc2)C1 (centres unmarked)
The “hERG current change (%, negative = inhibition) at 10uM” value of the first is higher: 12.9% for the first, -3.08% for the second.

Compared with `O=C1c2cccc3cccc(c23)C(=O)N1CC1CCN(S(=O)(=O)c2ccc(F)cc2)CC1`, `O=[N+]([O-])c1ccc(-c2ccc(S(=O)(=O)N3CCOCC3)cc2)cc1` is lower in “hERG current change (%, negative = inhibition) at 10uM” value: 2.54% for the first, -29.8% for the second.

Going from `Cc1c(N=C2Nc3cccc4cccc2c34)c(=O)n(-c2ccccc2)n1C` to `Cc1c(NC(=O)COc2cccc3c2OC(C)(C)C3)c(=O)n(-c2ccccc2)n1C`, the “hERG current change (%, negative = inhibition) at 10uM” value falls from 10.9% to 8.77%.

First: CCOC(=O)CSc1nnc(CNC(=O)c2cc(OC)c(OC)c(OC)c2)n1C
Second: COC(=O)Cc1c(O)ccn(Cc2ccc(OC)c(OC)c2)c1=O
The “hERG current change (%, negative = inhibition) at 10uM” value of the first is lower: -3.68% for the first, 0.213% for the second.

Compared with `Cc1cccc(OCC(O)Cn2c(NCCCOC(C)C)nc3c2c(=O)[nH]c(=O)n3C)c1` (centres unmarked), `Cc1cc(C)n(-c2nc3c(c(=O)[nH]c(=O)n3C)n2CC(O)COc2ccc(Cl)cc2Cl)n1` (centres unmarked) is lower in “hERG current change (%, negative = inhibition) at 10uM” value: 13.6% for the first, -3.56% for the second.

Compared with `CCOc1cc(C(=S)N2CCOCC2)cc(Br)c1OS(=O)(=O)c1ccccc1`, `COc1cc(CNCCCN2CCOCC2)c(Br)cc1OCC(=O)Nc1ccccc1C` is lower in “hERG current change (%, negative = inhibition) at 10uM” value: 9.78% for the first, -15.3% for the second.

Going from `Cc1ccc(NC(=O)CCn2nnc3ccccc32)cc1` to `Cc1ccc(C(O)c2nc3ccccc3n2C(C)C)cc1` (centres unmarked), the “hERG current change (%, negative = inhibition) at 10uM” value falls from 10% to 3.73%.

First: Cc1ccc(C)c(NS(=O)(=O)c2cc(C(=O)Nc3ccccc3-c3ccccc3)ccc2C)c1
Second: O=S(=O)([O-])c1ccc(N2N=C(c3ccccc3)CC2c2ccccc2)cc1.[Na+] (centres unmarked)
The “hERG current change (%, negative = inhibition) at 10uM” value of the first is higher: 18.2% for the first, 7.75% for the second.

First: CCNC(=S)N/N=C(\C)c1cc2ccccc2o1
Second: C=CCNC(=S)NNC(=O)c1ccc(Br)o1
The “hERG current change (%, negative = inhibition) at 10uM” value of the first is lower: 0.843% for the first, 9.05% for the second.

Compared with `Cc1ccc(-n2nnnc2Sc2nc([N+](=O)[O-])nn2C)cc1`, `CCSc1nnnn1-c1ccccc1` is higher in “hERG current change (%, negative = inhibition) at 10uM” value: -17.9% for the first, 6.83% for the second.

Compared with `O=C(CSc1nnc(CNC(=O)c2cccs2)o1)Nc1ccc(F)cc1F`, `Cc1ccc(-c2cc(C(=O)Nc3c(C#N)cnn3C)no2)cc1` is lower in “hERG current change (%, negative = inhibition) at 10uM” value: 6.27% for the first, -9.27% for the second.

Compared with `Cc1cccc(-c2cc3nc(-c4ccccc4)cc(N4CCC5(CC4)OCCO5)n3n2)c1`, `COc1ccc2cc(-c3ccccc3)ncc2c1` is higher in “hERG current change (%, negative = inhibition) at 10uM” value: 2.7% for the first, 5.65% for the second.

First: CC(C)c1ccc(NC(=O)NC2CCN(CC(=O)Nc3cccc4ccccc34)CC2)cc1
Second: COc1ccccc1C(C)NC(=O)c1ccc(NC(=O)CC2SC(N3CCCC3)=NC2=O)cc1 (centres unmarked)
The “hERG current change (%, negative = inhibition) at 10uM” value of the first is lower: -22.3% for the first, 13.1% for the second.

First: CCOc1ccc(CNC(=O)c2ccc3nc(N4CCOCC4)sc3c2)cc1
Second: COc1ccc(CCNCCN2CCOCC2)cc1.Cl
The “hERG current change (%, negative = inhibition) at 10uM” value of the first is lower: 10.7% for the first, 20.7% for the second.

Going from `CCC(C)(C)C1CCC2(CC1)NC(=O)N(CC(=O)N1CCN(S(=O)(=O)c3cc(C)ccc3C)CC1)C2=O` (centres unmarked) to `CCN(CC)S(=O)(=O)c1ccc2c(c1)N(CC(=O)N1CCCC1)C(=O)CO2`, the “hERG current change (%, negative = inhibition) at 10uM” value falls from 13.2% to -5.64%.

First: O=C(CSC(=S)N1CCOCC1)Nc1nc(=O)c2ccccc2s1
Second: C=CCn1c(CC(=O)Nc2ccc(C)cc2C)nnc1SCC(=O)N1CCOCC1
The “hERG current change (%, negative = inhibition) at 10uM” value of the first is higher: 14.3% for the first, 9.47% for the second.

Compared with `O=c1[nH]c(=O)n(C2CCCCCC2)c(O)c1C=NCC1CCCO1` (centres unmarked), `CCCCNC(=O)C1CCCN1C(=O)NC1CCCCC1` (centres unmarked) is higher in “hERG current change (%, negative = inhibition) at 10uM” value: 4.16% for the first, 17% for the second.

First: COc1ccc2c(C)c(Cl)c(=O)oc2c1
Second: COc1ccc2c(/C=C/c3cc[n+](C)cc3)c[nH]c2c1.[I-]
The “hERG current change (%, negative = inhibition) at 10uM” value of the first is lower: -7.56% for the first, 11.1% for the second.

Compared with `O=C(O)c1ccc([N+](=O)[O-])c(CS(=O)(=O)c2ccccc2)c1`, `Cc1ccc([N+](=O)[O-])cc1NC(=O)Nc1ccc(S(N)(=O)=O)cc1` is lower in “hERG current change (%, negative = inhibition) at 10uM” value: 19.5% for the first, 17.6% for the second.

First: COc1cccc(N2CCN(C3CCCC(C)C3)CC2)c1 (centres unmarked)
Second: COc1ccc(N2CCN(c3ccc(Cl)nn3)CC2)cc1
The “hERG current change (%, negative = inhibition) at 10uM” value of the first is lower: -23.8% for the first, -19.2% for the second.

Compared with `CC1CCCCC12NC(=O)N(CC(=O)Nc1sccc1C(N)=O)C2=O` (centres unmarked), `Cc1ccc(NC(=O)CSc2nc(=O)n(CCN(C)C)c3c2CCCC3)cc1Cl` is lower in “hERG current change (%, negative = inhibition) at 10uM” value: 1.18% for the first, -59.8% for the second.

First: O=C(Oc1cccc2ccccc12)c1cc(Cl)nc2ccccc12
Second: CC(Oc1ccc(-c2ccccc2)cc1)C(=O)N/N=C/c1cccnc1 (centres unmarked)
The “hERG current change (%, negative = inhibition) at 10uM” value of the first is higher: -5.31% for the first, -13.1% for the second.

Compared with `COc1cc(O)c(NC(C)=O)c2nonc12`, `CC(=O)Nc1cc(-c2nn3c(C)nnc3s2)ccc1C` is higher in “hERG current change (%, negative = inhibition) at 10uM” value: 11.2% for the first, 15.7% for the second.

First: COC(=O)N/N=C/c1ccc(OC(=O)/C=C/c2ccco2)cc1
Second: O=C(N/N=C/c1ccc(-c2ccc([N+](=O)[O-])cc2)o1)[C@H]1C[C@@H]1c1ccccc1
The “hERG current change (%, negative = inhibition) at 10uM” value of the first is lower: -1.51% for the first, 7.07% for the second.

Going from `CCCCN(CCCC)CC(O)Cn1c2ccccc2c(=O)c2ccccc21` (centres unmarked) to `CN(C(=O)CN1CC=C(c2ccccc2)CC1)c1c(N)n(Cc2ccccc2)c(=O)[nH]c1=O`, the “hERG current change (%, negative = inhibition) at 10uM” value rises from -68% to 25.8%.

Compared with `C=C1C2(C(=O)Nc3ccc(SC(F)F)cc3)CCC(C2)C1(C)C` (centres unmarked), `COc1ccc(CCNC2CCN(C)CC2)cc1OC` is higher in “hERG current change (%, negative = inhibition) at 10uM” value: -2.78% for the first, 3.52% for the second.

Compared with `Cc1ccc(N2C(=O)[C@@H]3Cc4ccccc4CN3C2=O)cc1`, `O=C(c1ccccc1)C(C(=O)N1CCc2ccccc2C1)n1ccccc1=O` (centres unmarked) is lower in “hERG current change (%, negative = inhibition) at 10uM” value: -3.34% for the first, -14.5% for the second.

First: O=C1C2(c3ccccc3)CN3CN(C2)CC1(c1ccccc1)C3
Second: O=C1CC2(CCN(C(=O)COc3ccc(F)cc3)CC2)Oc2ccccc21
The “hERG current change (%, negative = inhibition) at 10uM” value of the first is higher: -4.78% for the first, -42.6% for the second.

First: CC1Cc2cc(/C(O)=C3\C(=O)C(=O)N(Cc4cccnc4)C3c3ccccc3F)ccc2O1 (centres unmarked)
Second: COc1ccccc1-n1c(=O)[nH]c2c(C(N)=O)nc(-c3cccnc3)nc21
The “hERG current change (%, negative = inhibition) at 10uM” value of the first is higher: 13.1% for the first, 6.19% for the second.

First: Cn1nccc1-c1cc(Cl)cc(Cl)c1O
Second: CC(N)c1ccc(Cl)cc1Cl (centres unmarked)
The “hERG current change (%, negative = inhibition) at 10uM” value of the first is lower: 11.4% for the first, 23.2% for the second.

Compared with `O=C(CCCNS(=O)(=O)c1cccc2nsnc12)N1CCCCC1`, `COc1ccccc1N1CCN(C(=O)CCNS(=O)(=O)c2ccc3c(c2)CCC(=O)N3)CC1` is lower in “hERG current change (%, negative = inhibition) at 10uM” value: 10.7% for the first, 2.7% for the second.

Compared with `Cc1cc(=O)n2[nH]c(-c3ccccc3)cc2n1`, `O=c1[nH]cnc2cc(-c3ccccc3)sc12` is lower in “hERG current change (%, negative = inhibition) at 10uM” value: 9.91% for the first, -8.55% for the second.

First: CCOCCCn1c(=S)[nH]c2cc(C(=O)NC3CCCC(C)C3C)ccc2c1=O (centres unmarked)
Second: COc1ccc(S(=O)(=O)N2CCCCCC2)cc1C(=O)OCc1c(C)noc1C
The “hERG current change (%, negative = inhibition) at 10uM” value of the first is higher: 8.42% for the first, -28.2% for the second.

Compared with `CC(C)c1ccc(CCNC(=O)CCNS(=O)(=O)c2ccc(Br)cc2)cc1`, `COc1ccc(NC(=O)NCCN2CCN(c3ccc(C)cc3)CC2)c(Cl)c1` is lower in “hERG current change (%, negative = inhibition) at 10uM” value: 13% for the first, -8.96% for the second.

In the case of `C=C1C[C@]2(O)[C@@]3(C)CCC(=O)C(C)(C)C3=C(O)C(=O)[C@@]2(C)[C@@H]2C(=O)O[C@@](C)(C(=O)OC)C(=O)[C@@]12C`, the “hERG current change (%, negative = inhibition) at 10uM” value was -0.999%.
